# Experimental data as given in PubChem BioAssay AID504832 (National Center for Advancing Translational Sciences (NCATS), 2011).
# The whole screen tested about 310,000 compounds, of which about 18,000 (5.8%) were called active. Inconclusive results, whose numbers are uncertain, are shown with a selection of clear calls. Calls follow the shape of the dose curve; as a rule, active = well fitted inhibition curve with a large enough effect; inconclusive = small, poorly fitted or top-dose-only effect, or another doubt; inactive = no such curve, though single readings can be large or run the other way. Potencies of inconclusive entries are left out as doubtful fits.
# Assay: Primary qHTS for delayed death inhibitors of the malarial parasite plastid, 48 hour incubation
# Conditions: P. falciparum luciferase growth in erythrocytes; series mostly up to 28.7 µM
# How it was run: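 In quantitative HTS format, infected erythrocytes bearing luciferase-reporter parasites were treated for a single generation at 37 C. Luminescence after adding detection reagent served as the growth measure.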
# Potency is read from the fitted curve at half-maximal effect; tags tell the direction and shape of the fitted curve.
row,SMILES,Potency
1,Clc1ccc(C2[C@H]3CN(CC4CCCCC4)[C@H](c4ccccc4)C34CC2(c2cccnc2)C4)cn1 (stereo partly drawn),active: 3.7 µM
2,C/C(=N\Nc1nc2ccccc2[nH]1)c1ccc2c(c1)OCO2,"inconclusive [inhibitor, full curve]"
3,COc1ccc(NC(=O)CN2CCN(CC(=O)Nc3ccc(F)cc3)CC2)cc1Cl,"inconclusive [inhibitor, single point]"
4,CCOC(=O)[C@H]1[C@H]2COc3ccc(OC)cc3[C@@H]2N2C(=O)c3ccccc3NC(=O)[C@@]12C,"inconclusive [inhibitor, single point]"
5,COc1ccc(NC(=O)C(c2ccccc2)N2CCN(c3ccccn3)CC2)cc1Cl (stereo not drawn),"inconclusive [inhibitor, partial curve, poor fit]"
6,O=[N+]([O-])c1cccc(S(=O)(=O)N2CCCCC2c2cccnc2)c1 (stereo not drawn),"inconclusive [inhibitor, partial curve]"
7,Cc1ccc(-c2cc(C(=O)NCCc3ccc(S(N)(=O)=O)cc3)c3ccccc3n2)cc1,"inconclusive [inhibitor, full curve]"
8,O=C(Nc1cccc2ncccc12)c1ccc([N+](=O)[O-])o1,"inconclusive [inhibitor, partial curve]"
9,CCN(CC)CC#CC(OC)(c1ccccc1)c1ccccc1,"inconclusive [inhibitor, partial curve]"
10,O=C1Cc2ccccc2C(c2ccc(Cl)cc2)N1 (stereo not drawn),"inconclusive [inhibitor, partial curve, poor fit]"
11,CCn1cc(/C=C(\NC(=O)c2ccccc2)C(=O)N2CCOCC2)c2ccccc21,inactive
12,CN(C(=O)CCN1C(=O)C(C)(C)Nc2ccccc21)c1ccccc1,"inconclusive [inhibitor, partial curve]"
13,CCOC(=O)CSc1nnc(Cc2cc(=O)[nH]c(=O)[nH]2)n1-c1cccc(OC)c1,"inconclusive [inhibitor, full curve]"
14,N#Cc1cc2c(nc1SCC(=O)Nc1cc(Cl)cc(Cl)c1)C1CCN2CC1,"inconclusive [inhibitor, full curve, poor fit]"
15,COc1cc(Cl)ccc1NC(=S)N(CCN(C)C)C(C)c1ccncc1 (stereo not drawn),"inconclusive [inhibitor, partial curve]"
16,CN(C)/C=C(\C#N)C(=O)Nc1ccc(F)cc1,inactive
17,Brc1ccccc1C1=Nn2c(nnc2-c2ccccc2)SC1,"inconclusive [inhibitor, partial curve, poor fit]"
18,O=C(C1CCN(Cc2cc(Cl)ccc2O)CC1)N1CCN(Cc2ccccc2)CC1,"inconclusive [inhibitor, single point]"
19,COc1cccc2cc(C(=O)N3CCCCCCC3)c(=O)oc12,"inconclusive [inhibitor, full curve, poor fit]"
20,CC1(C)[N+]([O-])=C2C(=[N+]([O-])C1(C)C)c1ccccc1/C2=N\O,"inconclusive [inhibitor, single point]"
21,COc1cccc(CNC(=O)c2cc3c(cc2Cl)N2CCCCCC2=NS3(=O)=O)c1,"inconclusive [inhibitor, single point]"
22,COc1ccccc1C(=O)NCCC(=O)Nc1ccc(S(=O)(=O)Nc2ncccn2)cc1,"inconclusive [inhibitor, single point]"

row,SMILES,Potency
1,COc1ccc(-c2nncnn2)cc1,"inconclusive [inhibitor, single point]"
2,CCOC(=O)NC(NC(=S)Nc1ccccc1OC)C(Cl)(Cl)Cl (stereo not drawn),"inconclusive [inhibitor, single point]"
3,N#CCCn1ccc(NC(=O)c2ccc(Cl)cc2)n1,inactive
4,Cc1ccc(-c2csc3nc(SCC(N)=O)n(Cc4ccccc4)c(=O)c23)cc1,active: 13.1 µM
5,COc1cc(S(C)=O)ccc1-c1nc2ncccc2[nH]1 (stereo not drawn),inactive
6,CC1(C)Cc2cccc(OCC(=O)N3CCN(c4ccccc4F)CC3)c2O1,"inconclusive [inhibitor, single point]"
7,CCC(C)(CC(=O)O)CC(=O)Nc1cc(C(F)(F)F)cc(C(F)(F)F)c1 (stereo not drawn),inactive
8,CCOCCCN(C(=O)c1snc(C(N)=O)c1N)C(C(=O)NC(C)(C)C)c1ccc(Cl)cc1 (stereo not drawn),"inconclusive [inhibitor, single point]"
9,CCn1c(=O)cc(SCC(=O)N2CCN(c3ccccc3F)CC2)c2ccccc21,"inconclusive [inhibitor, single point]"
10,Cc1nc(-c2ccccc2)cn(O)c1=O,"inconclusive [inhibitor, single point]"
11,C/C(=N\NC(=O)c1ccccc1O)c1c(O)n(C2CCCCC2)c(=O)[nH]c1=O,"inconclusive [inhibitor, partial curve, poor fit]"
12,O=C(COc1ccccc1Cl)NCCNC(=O)c1cccnc1,inactive
13,CC(NC(=O)c1ccco1)C(c1cccs1)N1CCN(c2ccccc2F)CC1 (stereo not drawn),"inconclusive [inhibitor, single point]"
14,Cc1onc(-c2ccccc2)c1NC(=O)N(Cc1ccccc1)C(C)C,"inconclusive [inhibitor, full curve, poor fit]"
15,NN/C(=C\[N+](=O)[O-])Nc1ccccc1,"inconclusive [inhibitor, full curve, poor fit]"
16,CC(C)NCC(O)c1ccc(C2CCCC2)cc1 (stereo not drawn),"inconclusive [inhibitor, partial curve]"
17,CC(=O)N1CCN(c2ccc(NC(=O)c3ccc(N4CCCC4)c([N+](=O)[O-])c3)cc2Cl)CC1,active: 11.7 µM
18,C[C@@H]([C@H](O)c1ccccc1)N(C)C(=S)Nc1ccccc1,inactive
19,CCCCOc1ccc(-c2nnn(CC(=O)NCc3ccco3)n2)cc1,inactive
20,Cc1c(C2C(C#N)=C(N)N(c3ccccc3C#N)C3=C2C(=O)CCC3)cnn1C (stereo not drawn),inactive
21,COc1ccccc1CN1C(=O)c2ccccc2C1C(=O)NC1CCC(C)CC1 (stereo not drawn),"inconclusive [inhibitor, partial curve, poor fit]"
